According to PubChem BioAssay AID1963576 (National Center for Advancing Translational Sciences (NCATS), 2024):
The whole screen tested about 46,000 compounds, of which about 60 (0.1%) were called active. About 3% were inconclusive and are not listed. Calls come from the whole dose curve; as a rule, active = well fitted inhibition curve with a large enough effect; inconclusive = small, poorly fitted or top-dose-only effect; inactive = no such curve, though single readings can be large or run the other way. This is one part of the list.

Assay: Primary qHTS assay for Inhibitors of ovarian cancer metastasis using an organotypic tumor microenvironment (TME) model.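 For activity change, negative = inhibition: plate controls were DMSO wells for no effect and tomatine positive control wells for full effect.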 Note: nearly all actives have a fitted effect of over 65% in size.
Details: SKOV3ip1-GFP adhesion/invasion on 3D omental model, fluorescence; series mostly up to 45.8 µM; activity change, negative = inhibition: at the top concentration
In short: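 Adhesion/invasion was scored as fixed GFP-labeled SKOV3ip1 cell counts (488/509 nm), normalized to DMSO and tomatine controls. Cancer cells in serum-free medium, with four compound doses (0.36-46 umol/L), sat 2 hr at RT then 16 hr at 37 C on a 48 hr fibroblast/mesothelial/ECM culture.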

outcome, inactive:
NS(=O)(=O)c1ccc(CCNC(=O)C2CCN(c3ncnc4c3nc3n4CCCCC3)CC2)cc1, Cc1ccc(CNC(=O)CCc2cn(C)c3ccccc23)cc1, CCOc1ccc(NC(=O)c2oc3ccccc3c2NC(=O)COc2cccc(OC)c2)cc1, CC(Sc1nccn1C)C(=O)Nc1ccccc1C#N (stereo not given), CC(=O)c1cccc(NC(=O)Nc2sc3nc4n(c(=O)c3c2C)CCC(C)CC4)c1 (stereo not given), O=C(CSc1n[nH]c(-c2ccccc2Cl)n1)NCCCc1ccccc1, COc1cc(-c2cc(OC)c3c(C)oc(C)c3c(=O)c2)ccc1OC(=O)c1ccc(C)cc1, O=C1c2ccccc2-c2onc3c(N4CCN(C5CCCCC5)CC4)cc(NCCO)c1c23, CCCN(CCC)C(=O)c1cc2c(=O)n3cccc(C)c3nc2s1, CC(C)CC(=O)Nc1ccc2nc(SCC(=O)N3CCc4ccccc43)sc2c1, O=C(CSc1nnc(-c2ccc3c(c2)OCO3)o1)Oc1ccccc1, CCn1ccc2cc(S(=O)(=O)N3CCCN(C(=O)Nc4ccccc4F)CC3)ccc21, CCOc1cc(C2c3c(-c4cc(C)ccc4O)n[nH]c3C(=O)N2CCCOC(C)C)ccc1O (stereo not given), CCOc1ccc(-n2c(SCC(=O)Nc3cc(C)ccc3C)nc3c([nH]c4ccccc43)c2=O)cc1, COC(=O)c1cc(Nc2nc3ccccc3nc2NS(=O)(=O)c2ccc(C)cc2)ccc1Cl, Cc1ccc2oc3c(c(=O)c2c1)C(c1ccc(O)cc1)N(CCCN(C)C)C3=O (stereo not given), Cc1ccc(-n2c(=O)c3cccnc3n2CC(=O)NCc2ccc(Cl)cc2)cc1, O=C(CCS(=O)(=O)c1cc2c(cc1Cl)NC(=O)CO2)NCc1ccc(Cl)cc1, CCn1c2ccccc2c2cc(CN3CCN(Cc4ccc(Br)cc4)CC3)ccc21, COc1ccc2[nH]cc(CCN=C(NC(=O)c3ccccc3F)Nc3nc(C)cc(C)n3)c2c1, Cc1ccccc1NC(=O)Cn1c(=O)n(CCCC(=O)NCc2ccc3c(c2)OCO3)c(=O)c2ccccc21, CCCOC(=O)c1cccc(Nc2nc(CCC)cc(=O)[nH]2)c1, Cc1ccc(CN2C(=O)C(O)(c3c(C)[nH]c4ccccc34)c3ccccc32)cc1 (stereo not given), Cc1cc2nc(-c3ccc(OCc4ccccc4C)cc3)cc(C(F)(F)F)n2n1, COc1ccc([N+](=O)[O-])cc1NC(c1nnc(-c2ccccc2)o1)c1ccccc1F (stereo not given)

Activity change, negative = inhibition, inactive:
CCN(CC)c1ccc(NC(=O)c2cc(C)nc3c2c(C)nn3-c2ccc(C)cc2)c(C)c1 1.34%, COc1ccc(C2c3[nH]c4ccccc4c3CCN2C(=O)CCC2CCCC2)cc1 (stereo not given) -8.1%, COc1ccc(CNC(=O)Cc2c(C)c3cc4c(C)coc4cc3oc2=O)cc1OC 18.3%, CC1CCN(S(=O)(=O)N2CCC(C(=O)NCc3ccccc3Cl)CC2)CC1 -2.97%, COC(=O)c1ccc(Nc2ncnc3c2cnn3C)cc1 -2.53%, CCOC(=O)c1ccc(NC(=O)c2cnn3c(=O)c4c(n(CC)c23)CCN(Cc2ccc(OC)cc2)C4)cc1 11.8%, Cc1cn2c(=O)cc(COC(=O)c3ccc(NC(=O)c4ccc(F)cc4)cc3)nc2s1 -4.96%, CCN(CC)C(=O)c1sc2c(c1C)c(=O)n(Cc1ccccc1)c(=O)n2Cc1ccccc1C 3.46%, COc1ccc(N2CCN(C(=O)CSc3nc(-c4ccc(C(C)C)cc4)no3)CC2)cc1 -7.53%, O=C(CNC(=O)c1ccccc1)OCc1cc(=O)n2nc(C3CCCCC3)sc2n1 6.56%, CCN(CC)C(=O)c1sc2c(c1C)c(=O)n(-c1ccc(C)c(C)c1)c(=O)n2Cc1cc(=O)n2ccccc2n1 3.29%, OCCn1cc(-c2cnc3nnn(Cc4ccc5ncccc5c4)c3n2)cn1 -21.7%, Cc1ccsc1CCN1C(=O)N(c2ccccc2)C(=O)C1CC(=O)Nc1ccc(Cl)cc1 (stereo not given) 3.45%, COc1ccc(-c2nc3scc(CCNS(=O)(=O)c4ccc(Oc5ccccc5)cc4)n3n2)cc1OC -0.856%, O=C(NCc1ccc(F)cc1Cl)c1cc(=O)[nH]c2ccc(S(=O)(=O)N3CCCCC3)cc12 -3.49%, COc1ccc(-c2nc3scc(CCNS(=O)(=O)c4ccc5c(c4)OCCO5)n3n2)cc1OC -12.7%, Cc1ncc([N+](=O)[O-])n1CC(C)O (stereo not given) 8.81%, COc1ccc(CNC(=O)Cc2c(C(=O)O)c(C)cn2C)cc1 1.26%, Clc1ccc(CN2CCN(c3ncnc4sc5c(c34)CCCC5)CC2)cc1Cl 2.03%, Cc1c(-c2ccccc2)c(=O)oc2ccc(OC(=O)N3CCOCC3)cc12 -9.09%, Cc1cc(C)cc(OCCSc2nc3ccc(NC(=O)c4cccs4)cc3s2)c1 -5.35%, CCOc1ccc(C(=O)Nc2c(C(=O)Nc3ccccc3OC)oc3ccccc23)cc1OCC -0.166%, CCOc1ccc(NC(=O)CSC2=Nc3ccccc3C3=NC(CC(=O)NCc4cccs4)C(=O)N23)cc1 (stereo not given) 15.3%, COc1ccc2c(C)c(CC(=O)NCCc3ccc(Cl)cc3)c(=O)oc2c1C -1.18%, CC(=O)c1cccc(NC(=O)C2CCN(c3ncnc4c3nc3n4CCCCC3)CC2)c1 -12.4%, CC1=C(c2ccc(C)c(C)c2)S(=O)(=O)N=C1N1CCC(C(=O)NC(C)c2ccccc2)CC1 (stereo not given) -20.3%, CCc1ccc2oc(C(=O)N(Cc3ccc(N(C)C)cc3)Cc3ccco3)c(C)c2c1 -3.86%, CC(CCc1ccccc1)NC(=O)Cn1c(=O)nc(-c2ccccc2)c2cc(Cl)ccc21 (stereo not given) -12.9%, CCOc1ccccc1CNC(=O)c1sc2ncccc2c1-n1cccc1 3.25%, CCOC(=O)C1CCCN(S(=O)(=O)c2cc(-c3cc(C)no3)ccc2OC)C1 (stereo not given) -0.925%, Cc1ccc(CN(C(=O)c2ccc(C(C)(C)C)cc2)c2ccccn2)o1 0.523%, COc1ccccc1NC(=O)CSc1ncc2c(n1)-c1ccccc1N(Cc1ccccc1C)S2(=O)=O 3.62%, COc1cccc(Cn2c(SCC(=O)N3CCN(c4ccc(F)cc4)CC3)nc3ccccc32)c1 -25.8%, O=C(COC(=O)c1cc(-c2cccs2)nc2ccccc12)c1ccc(F)cc1 4.46%, O=C(Nc1cc(-c2ccccc2)sc1C(=O)O)c1cccc(F)c1 -22.8%, COc1ccc(CNC(=O)c2sc3nc4n(c(=O)c3c2C)CCCC4)cc1 -4.83%, COc1cccc(Cc2nc3ccccc3nc2SCC(=O)Nc2cccc(C)c2)c1 -12.5%, Cc1ccc(Cn2cc(S(=O)(=O)c3cccc(C)c3)c(=O)c3cc(F)c(N4CCOCC4)cc32)cc1 3.47%, CCC(C)n1c(=O)c2sccc2n2c(CCCC(=O)N3CCN(c4ccccc4)CC3)nnc12 (stereo not given) -1.15%, O=C(Cn1c(=O)n(Cc2nc(-c3ccccc3)no2)c(=O)c2cc3c(cc21)OCO3)Nc1ccccc1 13.4%, COc1ccc2c(c1)CCc1c(C(=O)Nc3cc(OC)c(Cl)cc3OC)noc1-2 5.97%, CC(C)c1ccc(NC(=O)CSC2=Nc3ccccc3C3=NC(CCC(=O)NC4CCCCC4)C(=O)N23)cc1 (stereo not given) 1.68%, COc1ccc2cc([C@H](C)C(=O)O)ccc2c1 -24.2%, O=C(Cc1ccccc1)Nc1sc2c(c1C(=O)Nc1ccccc1Cl)CCCCC2 5.89%, Nc1c(C(=O)Nc2ccc(F)cc2)sc2nc(-c3cccs3)cc(C(F)(F)F)c12 -5.01%, COC(=O)c1ccc([C@@H]2Nc3c(OC)ccc(C)c3[C@@H]3C=CC[C@@H]32)cc1 0.615%, Cc1cc(F)ccc1NC(=O)C(c1ccccc1)N1Cc2ccccc2C1=O (stereo not given) 7.25%, COc1ccc(C(=O)Nc2cccc(C(=O)OCc3cc(=O)n4nc(C5CC5)sc4n3)c2)cc1 6.63%, Cc1cccc(Nc2ncnc3onc(-c4ccc(Cl)cc4)c23)c1C 0.597%, O=[N+]([O-])c1ccc(Nc2ccccc2-c2ccccc2)c2nonc12 -6.43%, CC1N=C2c3ccccc3N=C(SCC(=O)NCCc3ccc(Cl)cc3)N2C1=O (stereo not given) -3.54%, CCOc1ccc(CC(=O)Nc2cccc(-c3nc4cccnc4s3)c2C)cc1 -2.76%, O=c1cc(-c2ccccc2)c2ccc3c(c2o1)CN(Cc1cccc(Cl)c1)CO3 -7.62%, COc1cccc(NCc2cccn2-c2nnc(N3CCC(C)CC3)s2)c1 -15.7%, CCC(C)NC(=O)CN1C(=O)c2cccnc2Sc2ccccc21 (stereo not given) -39.6%, C=C(C)CSc1nc2sc3c(c2c(=O)n1Cc1ccccc1)CC(C)(CC)OC3 (stereo not given) -3.96%, Cc1c(C(=O)Nc2ccccc2Br)oc2ccc(S(=O)(=O)N3CCCCCC3)cc12 -0.475%, COc1ccc(Cl)cc1NC(=O)c1c(NCc2ccc(C)o2)sc2c1CCC(C)C2 (stereo not given) 0.976%, Cc1ccc(-c2cn3cccnc3n2)cc1NC(=O)C(C)(C)Oc1ccc(Cl)cc1 -1.19%, COCCNC(=O)CCCn1c(SCC(=O)Nc2ccc(F)cc2)nc2c(sc3ccccc32)c1=O -12.1%, COc1ccc(C(=O)n2nc(N)c3cc4ccc(C)cc4nc32)cc1OC -1.34%, CCOC(=O)Cn1c(=N)n(Cc2ccc(C(C)(C)C)cc2)c2ccccc21 15.5%, COc1ccc(NC(=O)C2CCC(CNS(=O)(=O)c3cccc4nsnc34)CC2)cc1OC (stereo not given) -1.73%, Cc1cc(C)cc(-n2ccnc2SCC(=O)Nc2cccc3ccccc23)c1 9.44%, COc1cc(C2CC(=O)N(Cc3cccc(F)c3)c3ccccc3S2)cc(OC)c1OC (stereo not given) -0.582%, CC1CCN(C(=O)c2c(NC(=O)c3ccccc3Cl)sc3c2CCC(C(C)(C)C)C3)CC1 (stereo not given) 3.14%, COc1ccccc1C1NC(=O)c2n[nH]c(-c3cccs3)c21 (stereo not given) 1.85%, CCN(C(=O)Cn1c(C(=O)OC)cc2sc(Cl)cc21)c1cccc(C)c1 10.9%, CCc1ccc(S(=O)(=O)c2cn(CC(=O)Nc3ccc(F)c(Cl)c3)c3ccccc3c2=O)cc1 -8.04%, COc1ccc(N2C(=O)NC(NS(=O)(=O)c3ccc(Cl)cc3)(C(F)(F)F)C2=O)cc1 (stereo not given) 24.9%
